# Source: PMC4336329 (PLoS ONE, 2015)
# Screen size: about 310,000 compounds; about 14,000 (4.5%) showed an effect of 50% or more. The effect is printed as a negative number. Some of the results follow.
# Target: human ether-à-go-go-related gene (hERG) potassium channel (human, UniProt Q12809)
# Assay: primary screen, population patch clamp on CHO cells stably expressing hERG
# 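Further: peak tail current of the secondary pulse compared with the same well before compound.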
# human ether-à-go-go-related gene (hERG) potassium channel, sequence (Q12809 whole entry, looked up): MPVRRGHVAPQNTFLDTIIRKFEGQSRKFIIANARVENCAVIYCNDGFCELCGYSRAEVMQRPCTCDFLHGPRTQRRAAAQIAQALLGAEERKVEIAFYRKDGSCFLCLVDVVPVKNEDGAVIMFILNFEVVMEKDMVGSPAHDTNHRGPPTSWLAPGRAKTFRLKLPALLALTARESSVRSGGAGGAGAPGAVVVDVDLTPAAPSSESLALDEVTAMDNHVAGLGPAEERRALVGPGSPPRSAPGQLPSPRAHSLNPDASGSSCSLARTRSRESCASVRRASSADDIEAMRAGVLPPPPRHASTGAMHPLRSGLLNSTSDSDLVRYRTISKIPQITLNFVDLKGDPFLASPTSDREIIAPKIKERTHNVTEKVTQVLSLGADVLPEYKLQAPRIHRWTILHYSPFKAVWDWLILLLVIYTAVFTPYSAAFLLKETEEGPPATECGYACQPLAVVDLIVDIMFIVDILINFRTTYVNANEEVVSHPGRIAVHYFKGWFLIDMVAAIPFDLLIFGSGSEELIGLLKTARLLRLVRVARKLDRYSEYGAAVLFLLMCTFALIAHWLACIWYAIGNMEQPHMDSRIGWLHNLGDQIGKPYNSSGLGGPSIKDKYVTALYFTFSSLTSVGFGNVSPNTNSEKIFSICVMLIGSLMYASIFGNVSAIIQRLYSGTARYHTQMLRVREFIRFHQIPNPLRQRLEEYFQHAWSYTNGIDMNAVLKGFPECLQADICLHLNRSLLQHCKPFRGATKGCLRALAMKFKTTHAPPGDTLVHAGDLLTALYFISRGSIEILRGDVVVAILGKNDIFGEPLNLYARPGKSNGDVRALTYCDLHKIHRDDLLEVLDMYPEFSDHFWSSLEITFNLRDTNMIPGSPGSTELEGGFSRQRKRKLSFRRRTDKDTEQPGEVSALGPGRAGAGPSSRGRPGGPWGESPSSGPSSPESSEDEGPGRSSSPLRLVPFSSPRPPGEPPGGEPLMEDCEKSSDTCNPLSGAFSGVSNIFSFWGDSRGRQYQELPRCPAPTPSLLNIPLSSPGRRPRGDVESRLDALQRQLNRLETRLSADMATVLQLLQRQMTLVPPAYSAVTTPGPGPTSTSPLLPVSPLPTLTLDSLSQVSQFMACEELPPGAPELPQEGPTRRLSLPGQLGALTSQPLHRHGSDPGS
row,Structure (SMILES),"hERG current change (%, negative = inhibition) at 10uM [%]"
1,NC(=O)COc1ccc(C(=O)NCC2(N3CCOCC3)CCCCC2)cc1,6.98
2,O=S(=O)(c1ccc(F)cc1)N1CCN(Cc2cc3c(cc2Br)OCCO3)CC1,6.52
3,CCCCn1c(N)c(N(CCC(C)C)C(=O)c2ccc([N+](=O)[O-])o2)c(=O)[nH]c1=O,0.692
4,COC(=O)c1c[nH]n2c(=O)cc(C)nc12,8.97
5,CCc1nn(CCCN2CCN(c3cccc(Cl)c3)CC2)c(=O)n1CCOc1ccccc1.Cl,-65
6,COc1cc(/C=C(/C#N)c2nc3ccccc3[nH]2)ccc1OCC(=O)Nc1ccccc1C,7.97
7,CCCCc1nnc2c(N(C)S(=O)(=O)c3ccc(C)cc3)nc3ccccc3n12,-30.5
8,O=C(CCN1C(=O)c2ccccc2C1=O)N1CCN(Cc2ccc(Cl)cc2Cl)CC1,-53.4
9,COc1cc2cc(/C=C/C(=O)c3ccco3)c(Cl)nc2cc1OC,13.3
10,O=C(COC(=O)Cc1ccc(Cl)cc1Cl)Nc1ccccc1OC(F)F,5.81
11,Cn1c(=O)c2c(ncn2CC(=O)N2CCN(c3ccc(F)cc3)CC2)n(C)c1=O,-23.4
12,O=C(CCN1CCN(c2ccccc2)CC1)N/N=C/c1ccc([N+](=O)[O-])o1,-73.4
13,Cc1cccc(NC(=O)CN2CCN(C(=O)C3CCC3)CC2)c1C,-31.4
14,CCN(CC)CCC(c1ccc2c(c1)OCO2)c1c(OC)cc(OC)c2ccc(=O)oc12 (stereo not shown),-46.2
15,CCN1CCN(S(=O)(=O)c2cccs2)CC1,4.98
16,Cc1ccc(S(=O)(=O)CNC(=S)c2cccc(C)c2)cc1,-16.4
17,N#C/C(=C\c1ccc(C#N)cc1)C(=O)c1ccccc1,10.7
18,Cl.OCCN1C2=NCCCN2c2ccccc21,5.78
19,CCN(CC)C(=O)c1n[nH]c(=O)c2ccccc12,4
20,COc1ccc(Nc2cc(C(=O)NCCCN3CCN(C)CC3)c3ccccc3n2)cc1OC,1.49
21,CN(CC(=O)Nc1ccc(F)cc1)C(=O)c1cccc(NS(=O)(=O)c2ccccc2)c1,-10.8
22,OCn1ncn(-c2ccccc2)c1=S,20.2

row,Structure (SMILES),"hERG current change (%, negative = inhibition) at 10uM [%]"
1,O=c1[nH]cc(N=Cc2cc(Cl)cc(Cl)c2O)c(=O)[nH]1,17.5
2,Cc1ccc(SCc2nc(-c3ccccn3)no2)cc1,-22
3,COc1cc2cc(C(=O)N(C)Cc3ccccc3)[nH]c2cc1OC,14.8
4,CCCNC(=O)C(=O)Nc1ccc2c(c1)N(S(=O)(=O)c1cccs1)CCC2,-33.6
5,CN(C)CCN(C(=O)c1ccc(S(=O)(=O)N(C)c2ccccc2)cc1)c1nc2cc3c(cc2s1)OCO3.Cl,-2.57
6,CC1(C)CC(=O)C=C(Nc2ccccc2)C1,11.9
7,Cc1cc(NC(=O)c2ccc(NC(=O)CC(C)C)cc2)no1,-4.16
8,CCOC(=O)c1c(-c2ccccc2)c2cc(OC)ccc2n1CCCN(C)C.Cl,-72.4
9,CCCNS(=O)(=O)c1ccc(OCC(=O)N(C)Cc2ccccc2)cc1,-24.2
10,CCCOc1ccc(C(=O)N/N=C/c2ccc(-c3ccc(S(=O)(=O)Nc4ncccn4)cc3)o2)cc1,-7.38
11,CC(=O)c1cc2c(cc1NC(=O)c1ccc(C)cc1)OCO2,0.974
12,CCOc1ccc(CCNC(=O)COC(=O)c2ccc(S(=O)(=O)N3CCCC3)cc2)cc1OCC,25.7
13,Cc1ccc2nc(SCc3cn4cccnc4n3)[nH]c2c1,-8.52
14,Cc1cccc(N2C(=O)CN(Cc3ccccc3)C2=S)c1,-14.5
15,C=CCn1c2ccccc2c2nnc(SCC(=O)NC(C(=O)OC)C(C)C)nc21 (stereo not shown),-15.1
16,C=CCc1cccc(/C=N/NC(=O)CCC(=O)Nc2ccc(C)cc2)c1O,10.5
17,CCC/C=C(\CCC)C(NC(=O)CCc1ccccc1)c1ccc(C(F)(F)F)cc1 (stereo not shown),6.67
18,O=C1CC(SC(=Nc2ccccc2)Nc2ccccc2)C(=O)N1c1ccc(Cl)cc1 (stereo not shown),19.4
19,O=C(COC(=O)C1CCN(S(=O)(=O)c2cccs2)CC1)Nc1ccccc1Br,-49
20,COc1ccc(-c2nc(CS(=O)CC(=O)NCCCN3CCOCC3)c(C)o2)cc1OC (stereo not shown),5.05
21,COC(=O)CSC1=C(C#N)C(c2ccccc2OC)C(C(=O)OC)C(=O)N1 (stereo not shown),15.6
22,CCOC(=O)C1CCCN(C(=O)c2cc(S(=O)(=O)N3CCCCC3)ccc2C)C1 (stereo not shown),-10.2

row,Structure (SMILES),"hERG current change (%, negative = inhibition) at 10uM [%]"
1,Cc1cc(C)nc(NS(=O)(=O)c2ccc(NC(=O)C(C)C)cc2)n1,18.9
2,CC(=O)Nc1ccc(NC(=O)C(C)OC(=O)C2CC3C=CC2C3)cc1 (stereo not shown),-2.31
3,Nc1nc(-c2ccccc2)c(-c2ccc([N+](=O)[O-])cc2)s1,-8.13
4,COc1ccc(C(=O)/C=C(\C)Nc2ccc(NC(C)=O)cc2)cc1,-14.8
5,CC(C)(C)NC(=O)Cn1nnc(-c2ccc(OCc3c(F)cccc3Cl)cc2)n1,9.07
6,CCO[C@H]1OC(C(=O)Nc2ccccc2)=C[C@@H](c2ccc(Br)cc2)[C@@H]1CCCO,-4.47
7,OCCN(Cc1ccccc1)CC1CC=CCC1 (stereo not shown),-10.8
8,COc1ccc(Br)cc1/C=N/NC(=O)Cn1nnnc1N,17.9
9,Cn1nccc1C(=O)NC1CCN(Cc2ccccc2)CC1,-14.4
10,O=C1C(=O)N(CCN2CCOCC2)C(c2ccccn2)/C1=C(/O)c1ccc(Cl)cc1 (stereo not shown),6.78
11,Cc1cc(Cl)ccc1NNC(=O)c1cccs1,3.09
12,Cc1ccc(NC(=O)CCSc2ccccn2)cc1,14.5
13,CCCc1cc(C(=O)Nc2cccc(Cl)c2C)no1,-15.1
14,Cc1ccc(C(=O)CC(c2cccs2)S(=O)(=O)c2ccc(C)cc2)cc1 (stereo not shown),11.5
15,Cc1ccc(Nc2nc3nonc3nc2N(C)C)cc1,4.56
16,Cc1c(O)ccc2c(CN3CCN(Cc4ccccc4)CC3)cc(=O)oc12,-61.9
17,COc1ccc(-c2nc(CN3CCCC(C(=O)NC4CCCC4)C3)c(C)o2)cc1 (stereo not shown),-64.4
18,CCCNC(=S)Nc1cc2oc3ccccc3c2cc1OC,11.8
19,O=C1C(Cl)=C(N2CCCC2)C(=O)N1c1ccc(F)cc1,0.422
20,CCN(CC(=O)Nc1cc(Cl)ccc1C)C(=O)CSCc1c(C)noc1C,-11.9
21,COc1cccc(NC(=O)CSc2nc(O)c(C)c(=O)n2-c2ccc(C)cc2)c1,25.9
22,COc1cc2c(cc1OC)-c1nc3ccccc3c(=O)n1C(C)(C)C2,-17.4

row,Structure (SMILES),"hERG current change (%, negative = inhibition) at 10uM [%]"
1,OC(CN1CCN(c2ccccn2)CC1)Cn1c2ccccc2c2ccccc21 (stereo not shown),-29.8
2,COc1ccc2nc(N3CCCC3)c(C#N)cc2c1,2.79
3,Cc1coc2cc3oc(=O)c(CCC(=O)NCCCN4CCOCC4)c(C)c3cc12,-9.89
4,CCOC(=O)c1cnn(-c2nc(-c3ccc(F)cc3)cs2)c1C(F)(F)F,-26
5,O=C(NCCC1=CCCCC1)c1cnccn1,13.6
6,COc1ccc(C)cc1N(CC(=O)N1CCc2ccccc2C1)S(C)(=O)=O,-11.7
7,O=C(CN1CCOCC1)NCc1ccccc1Cl,11.5
8,CCn1c(SCc2ccccc2)nnc1C1CCCCC1,-11.2
9,N#Cc1c(-c2ccccc2)nc(SCC(=O)N(c2ccccc2)c2ccccc2)[nH]c1=O,11
10,Cc1cccc(N2Cc3ccccc3C2=NC(=O)c2ccc(Cl)nc2)c1,-14.2
11,Cc1c(C(=O)N2CCN(c3ccc(F)cc3)CC2)sc2nc(-c3ccccc3)cn12,-13.4
12,CC(Oc1ccc(Cl)cc1Cl)C(=O)OCn1nnc2ccccc2c1=O (stereo not shown),11.1
13,O=C1NC2(CCCCCC2)N=C1c1ccc(Br)cc1,4.52
14,Cc1nc(-c2ccc(F)cc2)c(CC(=O)N2CCN(S(=O)(=O)c3ccccc3Br)CC2)s1,-26.9
15,Cc1ccc(NC(=O)CSc2nc3ccccc3c(=O)n2CCCC(=O)NCCCN2CCOCC2)cc1C,-69.1
16,O=C(O)C(=O)O.c1ccc(CNC2=NCCCC2)cc1,1.76
17,CCOn1c(=O)c(-c2ccc(F)cc2)[n+]([O-])c2ccccc21,18.5
18,CC(=O)N=Cc1c(C)c(C#N)c(=O)n(C)c1O,12.6
19,O=C(O)Cc1ccc(NC(=O)C2CC=CCC2C(=O)O)cc1 (stereo not shown),23.7
20,O=C(Nc1ccc2c(c1)OCCO2)C1CCCN1S(=O)(=O)c1ccc(Cl)cc1 (stereo not shown),-11.3
21,Cc1ccc2nc(NC(=O)C3CCCN(S(=O)(=O)c4cccc5nonc45)C3)sc2c1 (stereo not shown),5.95
22,CC(C)[C@H](NS(=O)(=O)c1ccccc1)C(=O)OCC(=O)Nc1ccccc1Sc1ccccc1,1.98
